Results published in article PMC4336329 (PLoS ONE, 2015).
Screen size: about 310,000 compounds; about 2,200 (0.71%) showed an effect of 50% or more. The effect is printed as a negative number. The list shows a part of the results.

Molecular target: human ether-à-go-go-related gene (hERG) potassium channel (human, UniProt Q12809)
Assay: primary screen, population patch clamp on CHO cells stably expressing hERG

Sequence of human ether-à-go-go-related gene (hERG) potassium channel (Q12809 whole entry, looked up): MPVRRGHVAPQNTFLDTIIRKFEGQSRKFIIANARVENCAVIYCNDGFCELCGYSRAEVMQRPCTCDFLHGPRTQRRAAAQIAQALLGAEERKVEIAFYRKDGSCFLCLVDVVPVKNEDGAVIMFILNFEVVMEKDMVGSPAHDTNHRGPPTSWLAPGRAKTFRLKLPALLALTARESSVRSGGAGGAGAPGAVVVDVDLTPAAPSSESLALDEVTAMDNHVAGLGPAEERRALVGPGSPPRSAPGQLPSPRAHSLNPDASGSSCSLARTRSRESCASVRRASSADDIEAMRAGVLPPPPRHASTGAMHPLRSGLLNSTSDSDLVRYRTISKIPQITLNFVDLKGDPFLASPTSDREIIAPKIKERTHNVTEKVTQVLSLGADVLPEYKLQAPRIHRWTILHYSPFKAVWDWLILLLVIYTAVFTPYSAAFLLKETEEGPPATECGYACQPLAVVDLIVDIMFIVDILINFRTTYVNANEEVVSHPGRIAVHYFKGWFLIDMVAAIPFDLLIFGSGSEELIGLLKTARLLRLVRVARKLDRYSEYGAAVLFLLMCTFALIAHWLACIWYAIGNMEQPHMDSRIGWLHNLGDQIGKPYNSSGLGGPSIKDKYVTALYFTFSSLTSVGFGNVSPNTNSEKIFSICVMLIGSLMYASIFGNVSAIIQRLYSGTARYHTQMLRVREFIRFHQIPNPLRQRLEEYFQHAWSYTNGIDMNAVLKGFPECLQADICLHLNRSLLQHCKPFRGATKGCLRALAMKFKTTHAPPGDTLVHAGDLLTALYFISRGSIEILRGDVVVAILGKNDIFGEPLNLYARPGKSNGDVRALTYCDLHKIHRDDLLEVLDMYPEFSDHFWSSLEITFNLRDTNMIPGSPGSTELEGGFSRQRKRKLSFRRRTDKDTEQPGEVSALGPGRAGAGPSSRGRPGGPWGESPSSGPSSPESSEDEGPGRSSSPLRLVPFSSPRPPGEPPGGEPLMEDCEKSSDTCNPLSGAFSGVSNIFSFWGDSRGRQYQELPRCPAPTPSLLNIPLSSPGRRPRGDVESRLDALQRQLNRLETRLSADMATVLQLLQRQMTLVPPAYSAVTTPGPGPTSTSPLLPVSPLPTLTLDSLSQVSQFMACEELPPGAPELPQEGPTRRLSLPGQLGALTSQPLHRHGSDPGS

Structure (SMILES)	hERG current change (%, negative = inhibition) at 1uM [%]
CC(=O)c1c(OCC(=O)O)ccc2c(C)cc(=O)oc12	-5.47
CN(C)CCNC(=O)Cc1ccc([N+](=O)[O-])cc1	11
Cc1cc(=O)[nH]c(Nc2cccc(F)c2)n1	9.97
O=C1c2ccccc2NC(c2ccc(-c3cccc(F)c3)o2)N1O (stereo not drawn)	1.85
CCC(C)(C)NC(=O)C(c1cccnc1)N(C(=O)c1csnn1)c1ccccc1 (stereo not drawn)	1.46
Cn1cc(C(=O)N/N=C/c2cccc([N+](=O)[O-])c2)c2ccccc21	11.2
O=C(O)CCCC(=O)Nc1ccccc1-n1ccnc1	10.3
Cc1ccc(-n2c(C)nnc2SCC(=O)N2CCc3ccccc3C2)cc1	-19.6
O=C(CCSCc1ccccc1Cl)NCc1cccs1	9.73
Nc1ccncc1N	11
CC(=O)Nc1ccc(S(=O)(=O)NNC(=O)c2ccc3c(c2)OCO3)cc1	10.5
CCOc1ccc(NC(=O)Cn2c(=O)oc3ccccc32)cc1	12.8
COc1ccc(Cl)cc1-c1n[nH]c(=S)n1C	-7.48
Cc1cc(-c2nnc(SCC(=O)Nc3ccc(F)cc3)n2N)n[nH]1	8.07
O=C(O)C1CCCCC1C(=O)NCc1cn2ccccc2n1 (stereo not drawn)	15.8
c1cnc2c(C3NCCc4c3[nH]c3ccccc43)cccc2c1 (stereo not drawn)	-12.4
CCOC(=O)C1CCCN(C(=O)Cn2cnc3sc(C)c(S(=O)(=O)N4CCOCC4)c3c2=O)C1 (stereo not drawn)	15.1
CC1CC(C)CN(S(=O)(=O)c2ccc(NC(=O)CCNC(=O)c3ccc([N+](=O)[O-])cc3)cc2)C1 (stereo not drawn)	3.64
Cc1cccc(CCNC(=O)C2CCC(=O)N(Cc3ccccc3F)C2)n1 (stereo not drawn)	13.5

Structure (SMILES)	hERG current change (%, negative = inhibition) at 1uM [%]
CC(CCc1ccccc1)NC(=O)CCC(=O)N1CCC(C(N)=O)CC1 (stereo not drawn)	13.6
COc1ccc(N2CCN(C(CNC(=O)c3ccco3)c3ccco3)CC2)cc1 (stereo not drawn)	1.73
Cc1noc(C(=O)Nc2ccc(F)c(Cl)c2)c1Cl	14.6
CCCCNc1ncnc2c1cnn2-c1ccccc1	-4.95
Cl.Oc1ccc(Nc2nc(N3CCCC3)c3ccccc3n2)cc1	-62.7
Cc1ccc(C(NC(=O)Nc2ccccn2)C(Cl)(Cl)Cl)cc1F (stereo not drawn)	15.4
Cc1cc(C(=O)COC(=O)c2ccncc2)c(C)n1Cc1ccco1	12.5
CC(=O)NC12CC3CC(C1)CC(C(=O)N1CCN(C(=O)c4ccco4)CC1)(C3)C2	7.16
CCN(CC)CC(=O)Nc1cccc(S(=O)(=O)N2CCCC2)c1	6.42
COC(=O)CN1C(=S)N(c2ccc(OC)cc2)C(=O)/C1=C/c1ccc(N2CCOCC2)cc1	8.78
Cc1sc2nnn(CC(=O)N3CCN(C(=O)c4ccco4)CC3)c(=O)c2c1C	-5.92
OC(CN(c1ccccc1)c1ccccc1)Cn1cnc2ccccc21 (stereo not drawn)	-12
CCc1ccccc1N(C)S(=O)(=O)c1ccc2[nH]cc(C(=O)N3CCc4ccccc43)c(=O)c2c1	12.8
CC1C2Cn3c(nc4ccccc43)C1N(C)O2 (stereo not drawn)	13.8
COc1ccccc1C(=O)NC(=S)Nc1ccc(S(=O)(=O)N2CCN(C)CC2)cc1	3.49
Cc1ccc(-c2nc(SCC(=O)c3c(N)n(C)c(=O)n(C)c3=O)n[nH]2)cc1	-0.682
COc1ccc(NC(=O)CSc2n[nH]c(-c3ccccc3)n2)cc1S(N)(=O)=O	1.42
Cc1nc(SCC(=O)NCc2ccco2)c2oc3ccccc3c2n1	3.07
CC(C)C(NC(=O)OCc1ccccc1)C(=O)OCC(=O)N1CCCCC1 (stereo not drawn)	1.56

Structure (SMILES)	hERG current change (%, negative = inhibition) at 1uM [%]
CC1CCN(C(=O)c2ccc(CNc3c(N4CCCC4)c(=O)c3=O)cc2)CC1	2.56
C/C(Cc1ccccc1)=N\NC(=O)CNC(=O)c1ccccc1	10.9
CCOc1ccccc1NC(=O)C1CCC(CNc2c(N3CCCCC3)c(=O)c2=O)CC1 (stereo not drawn)	15.1
CCOC(=O)C1(Cc2cccc(OC)c2)CCN(Cc2cccc3cnccc23)CC1	5.23
COC(=O)C1=C(c2ccc(OC(F)(F)F)cc2)C[C@@H]2CC[C@H]1N2C(=O)NC1CC1	7.64
CCc1nnc2c(NCCc3ccccc3)nc3ccccc3n12	8.92
CC12CCC(C/C1=N\N=C1\NC(=O)/C(=C\c3ccc(Cl)cc3)S1)C2(C)C (stereo not drawn)	14.8
Cl.O=C(O)C1=CCNCC1	17.1
CCOC(=O)NC(=O)CSc1nnnn1-c1ccc(Cl)cc1	-10.5
Cc1ncc(CN2CCN(C(C)C)C(CCO)C2)s1 (stereo not drawn)	11.9
O=C(C1=NN[C@@H]2C(=O)N(c3ccccc3C(F)(F)F)C(=O)[C@H]12)c1ccc2ccccc2n1	6.25
COc1ccccc1NC(=O)c1cc2c(=O)n(C)c3ccccc3c2n1C	9.36
CCOc1ccc(S(=O)(=O)N2CCC(C(=O)NC3CCCCC3)CC2)cc1	6.05
COc1ccc(CC(=O)Nc2ccc(OC)nc2)cc1	9.86
CCc1c(C)c(C#N)c2nc3ccccc3n2c1N1CCN(c2cc(C)ccn2)CC1	16.5
O=C1NC(=S)NC(=O)C12C(c1ccc(F)cc1)NC(=S)NC2c1ccc(F)cc1 (stereo not drawn)	3.52
O=C(CC12CC3CC(CC(C3)C1)C2)NC(=S)NCc1ccccc1	-0.571
CCc1ccc(-c2cc3c(=O)n(CC(=O)NCCCN4CCN(CC)CC4)nc(C)n3n2)cc1	2.97
Cc1ccc(Cl)c(OCC(=O)Nc2cc(S(=O)(=O)N3CCOCC3)ccc2N2CCCC2)c1	3.82
